# In the antibiotic and cytotoxicity screens of Wong et al. (2023):
# The list shows a part of the results.
# Tests used:
# [1] = system: HSkMC (human skeletal muscle cells); assay: cytotoxicity call (relative viability < 0.9); conditions: 10 µM
# [2] = system: HepG2; assay: cytotoxicity call (relative viability < 0.9); conditions: 10 µM
# [3] = system: S. aureus RN4220; assay: growth inhibition call (relative growth <= 0.2); conditions: 50 µM
Structure (SMILES),cytotoxicity call [1],cytotoxicity call [2],growth inhibition call [3]
Cc1cc(C(=O)Nc2cccc3c2O[C@@H](CN(C)Cc2ccc(C(=O)O)cc2)[C@@H](C)CN([C@@H](C)CO)C3=O)n(C)n1,inactive,inactive,inactive
C[C@@H]1CCCCO[C@H](CN(C)C(=O)Nc2ccc3c(c2)OCO3)[C@H](C)CN([C@@H](C)CO)C(=O)c2cc(NS(=O)(=O)c3ccc(F)cc3)ccc2O1,inactive,inactive,inactive
CC(C)N1C[C@H](C)[C@@H](CN(C)Cc2ccc(Oc3ccccc3)cc2)Oc2c(NC(=O)C3CCNCC3)cccc2C1=O,active,active,active
Cc1cc(Nc2ncc(Cl)c(Nc3ccccc3S(=O)(=O)C(C)C)n2)c(OC(C)C)cc1C1CCNCC1,active,active,inactive
CC(C)CC#Cc1ccc2c(c1)O[C@@H](CN(C)C(=O)NC1CCCC1)[C@@H](C)CN([C@@H](C)CO)S2(=O)=O,inactive,inactive,inactive
C[C@@H]1CN([C@@H](C)CO)C(=O)c2cc(NC(=O)CCCN(C)C)ccc2O[C@@H]1CN(C)S(=O)(=O)c1cn(C)cn1,inactive,inactive,inactive
CCN(CC)c1ccc(N2CC=C[C@@]34O[C@@H]5/C=C\CCCOC(=O)[C@@H]5[C@H]3C(=O)N([C@@H](C)CO)[C@@H]4C2=O)cc1,inactive,inactive,inactive
CNC[C@H]1Oc2ccc(NC(=O)CCN3CCOCC3)cc2CC(=O)N([C@@H](C)CO)C[C@H]1C,inactive,inactive,inactive
Cc1noc(C)c1NC(=O)N(C)C[C@@H]1Oc2c(NS(=O)(=O)c3ccccc3)cccc2C(=O)N([C@H](C)CO)C[C@H]1C,inactive,inactive,inactive
C[C@H]1CN([C@@H](C)CO)C(=O)c2c(c3ccccc3n2C)-c2ccccc2CO[C@H]1CN(C)Cc1ccc2c(c1)OCCN2C,inactive,inactive,inactive
CN(C)C(=O)C[C@@H]1CC[C@@H]2[C@H](COC[C@@H](O)CN2S(=O)(=O)c2ccccc2)O1,inactive,inactive,inactive
O=C1O[C@@H](CO)[C@H](O)[C@@H](O)[C@@H]1O,inactive,inactive,inactive
COc1ccc(NC(=O)Nc2ccc3c(c2)C(=O)N([C@@H](C)CO)C[C@H](C)[C@H](CN(C)S(=O)(=O)c2cn(C)cn2)O3)cc1,inactive,inactive,inactive
CCCCOc1ccc(CC(=O)NO)cc1,inactive,active,inactive
CN(Cc1ccccc1)C(=O)[C@H](Cc1ccc2ccccc2c1)NC(=O)[C@@H]1CCCN1C(=O)Nc1ccccc1[N+](=O)[O-],inactive,inactive,inactive
CC(C)NC(=O)N(C)C[C@@H]1Oc2ccc(NS(=O)(=O)c3ccc(F)cc3)cc2C(=O)N([C@@H](C)CO)C[C@@H]1C,inactive,inactive,inactive
C[C@@H]1CN([C@@H](C)CO)C(=O)Cc2cc(NC(=O)Nc3cccc4ccccc34)ccc2O[C@@H]1CN(C)Cc1ccncc1,inactive,active,inactive
C[C@H](CO)N1C[C@H](C)[C@H](CN(C)C(=O)C2CC2)Oc2ncc(-c3ccc(C(=O)N(C)C)cc3)cc2C1=O,inactive,inactive,inactive
Cc1ccccc1/C=C(\C#N)c1nc(-c2ccccc2)cs1,inactive,active,inactive
COc1ccc(NC(=O)N(C)C[C@@H]2Oc3c(NS(=O)(=O)c4cn(C)cn4)cccc3C(=O)N([C@@H](C)CO)C[C@H]2C)cc1,inactive,inactive,inactive

Structure (SMILES),cytotoxicity call [1],cytotoxicity call [2],growth inhibition call [3]
COC1(NC(=O)CSCC#N)C(=O)N2C(C(=O)[O-])=C(CSc3nnnn3C)CSC21.[Na+] (configuration not stated),inactive,inactive,active
C[C@H](CO)N1C[C@H](C)[C@H](CN(C)C(=O)Nc2ccc(C(F)(F)F)cc2)Oc2ccc(NS(C)(=O)=O)cc2C1=O,inactive,inactive,inactive
O=C(CCCCCNC(=O)OCc1ccc(CO[C@H]2C[C@@H](c3ccc(C(F)(F)F)cc3)C=C(C(=O)N3CCN(Cc4ccccc4)CC3)O2)cc1)NO,inactive,inactive,inactive
CCCNC1CCc2nc(N)sc2C1.Cl.Cl (configuration not stated),inactive,inactive,inactive
C[C@@H]1CCCCO[C@@H](CN(C)CC2CCCCC2)[C@H](C)CN([C@H](C)CO)C(=O)c2cc(NS(=O)(=O)c3cccs3)ccc2O1,inactive,inactive,inactive
CCOC(=O)n1ccn(C)c1=S,inactive,inactive,inactive
Cn1c(=O)c2c(ncn2CC(=O)O)n(C)c1=O,inactive,inactive,inactive
Cc1ccc(S(=O)(=O)Nc2ccc3c(c2)C(=O)N([C@H](C)CO)C[C@@H](C)[C@@H](CN(C)S(=O)(=O)c2ccc(Cl)cc2)OCCCC[C@H](C)O3)cc1,inactive,inactive,inactive
NCc1ccccc1Oc1ccccc1,inactive,inactive,inactive
N#C[C@H]1N[C@@H](CO)[C@@H]1c1ccccc1,inactive,inactive,inactive
C[C@H](CO)N1C[C@H](C)[C@H](CN(C)C(=O)Nc2ccc(C(F)(F)F)cc2)Oc2c(NS(=O)(=O)c3ccc(F)cc3)cccc2C1=O,inactive,inactive,inactive
C[C@@H]1O[C@@H]1P(=O)(O)O,inactive,inactive,inactive
O=c1[nH][nH]c(=S)n1C1CC1,inactive,inactive,inactive
COc1cc(OC)nc([C@@H](NC(=O)C2CCN(Cc3ccc(Oc4ccccc4)cc3)CC2)c2ccccc2C)n1,inactive,active,inactive
C[C@@H]1CN([C@@H](C)CO)C(=O)c2cc(NC(=O)CCC(F)(F)F)ccc2O[C@@H](C)CCCCO[C@H]1CN(C)C(=O)Nc1cccc2ccccc12,active,inactive,inactive
C[C@@H]1CN([C@@H](C)CO)C(=O)c2cccc(NC(=O)c3cnccn3)c2O[C@@H]1CN(C)Cc1ccc(C(=O)O)cc1,inactive,inactive,inactive
N[C@H](CCC(=O)O)C(=O)O,inactive,inactive,inactive
FC(F)(F)c1nc2ccccc2[nH]1,inactive,inactive,inactive
COCC#Cc1ccc2c(c1)O[C@@H](CN(C)Cc1ccccc1F)[C@H](C)CN([C@@H](C)CO)S2(=O)=O,inactive,inactive,inactive
CC(C)(C)[C@H]1COC(=O)[C@@H](NC(=O)OCC2c3ccccc3-c3ccccc32)CC=CC[C@H](CC(=O)NCCO)C(=O)N1,inactive,inactive,inactive

Structure (SMILES),cytotoxicity call [1],cytotoxicity call [2],growth inhibition call [3]
Cc1noc(C)c1S(=O)(=O)N(C)C[C@H]1Oc2ccc(NC(=O)Cc3ccccc3)cc2CC(=O)N([C@H](C)CO)C[C@H]1C,inactive,inactive,inactive
C[C@@H]1CN([C@@H](C)CO)C(=O)c2cc(NC(=O)C3CCCCC3)ccc2O[C@@H](C)CCCCO[C@H]1CN(C)CC1CCCCC1,inactive,active,inactive
C[C@@H]1CCCCO[C@@H](CN(C)CC2CCCCC2)[C@@H](C)CN([C@@H](C)CO)C(=O)c2cc(NC(=O)C3CCCCC3)ccc2O1,inactive,active,inactive
C[C@@H]1CN([C@@H](C)CO)C(=O)c2cccc(NS(=O)(=O)c3cn(C)cn3)c2O[C@@H]1CN(C)C(=O)NC1CCCCC1,inactive,inactive,inactive
C[C@@H]1CN([C@H](C)CO)C(=O)c2cccc(NS(=O)(=O)c3cccs3)c2O[C@H]1CN(C)S(=O)(=O)c1cn(C)cn1,inactive,inactive,inactive
CC(=O)NCCCC[C@@H]1NC(=O)[C@H]2C[C@@H](C(=O)NCCCCCCN(C)C)[C@@H](c3ccc(O)cc3)N2C1=O,inactive,inactive,inactive
COC(=O)Cc1cccn1C,inactive,inactive,inactive
COc1ccc(S(=O)(=O)N(C)C[C@@H]2OCCCC[C@H](C)Oc3ccc(NC(=O)Nc4ccc5c(c4)OCO5)cc3C(=O)N([C@H](C)CO)C[C@@H]2C)cc1,inactive,inactive,inactive
Cc1ccc(S(=O)(=O)N(C)C[C@@H]2Oc3ccc(NS(=O)(=O)c4cccs4)cc3C(=O)N([C@H](C)CO)C[C@@H]2C)cc1,inactive,inactive,inactive
C[C@@H]1CN([C@@H](C)CO)C(=O)c2cccc(NS(=O)(=O)c3ccc(F)cc3)c2O[C@H]1CN(C)Cc1ccc(Cl)c(Cl)c1,inactive,inactive,inactive
CCn1cc(C(=O)O)c(=O)c2cnc(N3CCCC3)nc21,inactive,inactive,inactive
C[C@@H]1CN([C@@H](C)CO)C(=O)c2cc(NC(=O)c3ccccc3)ccc2O[C@@H](C)CCCCO[C@H]1CN(C)C(=O)NC1CCCCC1,inactive,inactive,inactive
O=C(NO)c1ccc(C(=O)N/N=C/[C@@H](O)[C@@H](O)[C@H](O)[C@H](O)CO)cc1,inactive,inactive,inactive
C[C@@H]1CCCCO[C@H](CN(C)S(=O)(=O)c2cn(C)cn2)[C@@H](C)CN([C@H](C)CO)C(=O)c2cc(NC(=O)Nc3cccc4ccccc34)ccc2O1,inactive,inactive,inactive
COCCOC(=O)C1=C(C)NC(C)=C(C(=O)OCC=Cc2ccccc2)C1c1cccc([N+](=O)[O-])c1 (configuration not stated),inactive,active,inactive
COc1ccc([Si](C)(C)[C@@H]2[C@@H](CCO)O[C@]3(C(=O)N(Cc4cccc(N5C(=O)c6cccc7cccc5c67)c4)c4ccccc43)[C@H]2C)cc1,inactive,active,inactive
CN1C(=O)c2cc(NC(=O)C3CCCC3)ccc2OC[C@@H]2O[C@@H](CC(=O)NCCc3ccncc3)CC[C@H]21,inactive,inactive,inactive
NC(=O)CSc1nc(N)cc(N)n1,inactive,inactive,inactive
COC(=O)C1=C(C)NC(C)=C(C(=O)OC(C)(C)CN(C)CCC(c2ccccc2)c2ccccc2)[C@@H]1c1cccc([N+](=O)[O-])c1,active,inactive,inactive
